PMC11154711, “Hotspot site microenvironment in the deubiquitinase OTUB1 drives its stability and aggregation” (The Journal of Biological Chemistry, 2024)
One block for each binder: values may come before it.

Assays:
[1] = molecular target: T1, Ubc13 (E2 ubiquitin-conjugating enzyme) (UniProt P61088 1-152); test: BLI; Ubc13 (25 ug) immobilised on amine-reactive (AR2G) biosensors by EDC/NHS in 10 mM acetate pH 5.0; OTUB1 and mutants 0-400 uM in 50 mM sodium phosphate pH 7.2, 300 mM NaCl; 120 s association, 120 s dissociation; 25 °C; sensor without Ubc13 subtracted; 1:1 model; conditions: both partners purified
T1 construct: Ubc13, E2 ubiquitin-conjugating enzyme; the protein-coding frame subcloned into pGEX-6P-1; Coupled by amines (EDC/NHS) to the AR2G biosensor in the BLI assay
T1 sequence (looked up): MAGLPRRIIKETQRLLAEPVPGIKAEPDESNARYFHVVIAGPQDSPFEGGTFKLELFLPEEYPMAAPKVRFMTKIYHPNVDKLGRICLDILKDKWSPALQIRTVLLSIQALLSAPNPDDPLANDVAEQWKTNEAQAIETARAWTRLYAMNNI

[2] = molecular target: the molecule itself; test: fluorescence correlation spectroscopy; 25 nM Atto-532-labelled protein with 350 uM unlabelled protein under aggregating conditions, time points 0, 6, 12, 24 h; size of the second peak from the hydrodynamic radius (Gaussian distribution model); 50 mM sodium phosphate, 150 mM NaCl, pH 7.2; room temperature

fold reduction of Ubc13 binding against wild type [1]: ~21 fold
B1: OTUB1 F133A (enzyme)
chain: not shown
notes: OTUB1, human, 271 residues, full-length ORF of pOPINK-OTUB1 with the mutation F133A; In the FCS experiment 25 nM protein labelled on cysteines with Atto-532 maleimide was mixed as a tracer with 350 uM unlabelled protein
stoichiometry N [2]: ~4 units

B2: OTUB1 V173K (enzyme)
chain: not shown
notes: OTUB1, human, 271 residues, full-length ORF of pOPINK-OTUB1 with the mutation V173K; In the FCS experiment 25 nM protein labelled on cysteines with Atto-532 maleimide was mixed as a tracer with 350 uM unlabelled protein
stoichiometry N [2]: ~4 units
